We go through three compounds from PubChem BioAssay (NCI).

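Compound exposure: 48 hours, 5 concentrations, 96-well plates. The concentration for 50% growth inhibition is given as GI50. TGI: concentration producing complete growth inhibition.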

For the test, the system named is NCI-H322M lung. Nature of the test: DTP human tumour cell line panel, 48 h.
In the case of `CCc1ccccc1-c1nc(CN[C@@H]2C[C@@H]3C[C@H]([C@H]2C)C3(C)C)c(C)o1`, the GI50 is 1.97 µM and the TGI amounted to 5.05 µM.

Turning to `COc1ccccc1/C=C/c1cccc(NC(=S)NCCCCN(C)C)c1`, the GI50 is 13.6 µM and the TGI stood at 27.7 µM.

Take `CCOc1ccc(-c2cc(-c3cc(C(C)C)c(O)cc3C)nn2-c2ccc(S(N)(=O)=O)cc2)cc1`: the GI50 was 10.4 µM and the TGI was 22.1 µM.

For orientation: GI50 means the concentration that inhibits growth by half. By TGI is commonly meant the concentration at which net growth stops. High values mean less potent growth arrest, low ones more potent growth arrest.
